Measurements reported in the supplement of paper PMC10441789.
The other results are listed elsewhere or left out. Antibody binding of pooled human sera (four to six donors per pool; dilution not stated) to peptides of the Trypanosoma cruzi antigen TSSA on microarrays. Quantile-normalised fluorescence in arbitrary units, mean of duplicate arrays; higher = more binding. No active / inactive call. The uninfected pools are read here as the healthy donors of the same country. The strongest signals lie near the top of the scale (about 60,000).

Legend:
Experiment in all cases: antibody binding signal (normalised fluorescence) (arbitrary fluorescence units); higher = stronger serum antibody binding to peptide
[1] = tested on: pooled sera of chronic Chagas disease patients, Argentina
Description: (§1)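 Microarray of 15-residue peptides over residues 30-55 of Trypanosoma cruzi TSSAII, each with 1 to 10 substitutions at naturally variable positions, probed with one serum pool per country.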

[2] = tested on: pooled sera of chronic Chagas disease patients, Bolivia
Description: as §1

[3] = tested on: pooled sera of chronic Chagas disease patients, Brazil
Description: as §1

[4] = tested on: pooled sera of chronic Chagas disease patients, Colombia
Description: as §1

[5] = tested on: pooled sera of chronic Chagas disease patients, Mexico
Description: as §1

[6] = tested on: pooled sera of chronic Chagas disease patients, USA
Description: as §1

[7] = tested on: pooled sera of uninfected people, Argentina
Description: as §1

[8] = tested on: pooled sera of uninfected people, Bolivia
Description: as §1

[9] = tested on: pooled sera of uninfected people, Brazil
Description: as §1

[10] = tested on: pooled sera of uninfected people, Colombia
Description: as §1

[11] = tested on: pooled sera of uninfected people, Mexico
Description: as §1

[12] = tested on: pooled sera of uninfected people, USA
Description: as §1

Sequence | antibody binding signal [1] | antibody binding signal [2] | antibody binding signal [3] | antibody binding signal [4] | antibody binding signal [5] | antibody binding signal [6] | antibody binding signal [7] | antibody binding signal [8] | antibody binding signal [9] | antibody binding signal [10] | antibody binding signal [11] | antibody binding signal [12]
PPSGTENKAATGGTP | 48800 | 38900 | 45700 | 562 | 3240 | 13400 | 1890 | 622 | 366 | 698 | 309 | 739
TPPSGTDKKPATGGT | 33400 | 4570 | 42100 | 5510 | 48800 | 4960 | 774 | 476 | 1000 | 340 | 3130 | 448
DKKAAAGGAPSQPGA | 433 | 358 | 2890 | 5000 | 515 | 483 | 205 | 134 | 219 | 137 | 150 | 155
GKEKKAATGETPSPP | 3630 | 434 | 5320 | 1210 | 3280 | 8330 | 196 | 115 | 82.5 | 190 | 89 | 213
PPSGTDKKTAAGETP | 3960 | 7630 | 15300 | 2440 | 27200 | 1480 | 251 | 401 | 309 | 700 | 1220 | 183
KEKKTATGETPSQSG | 449 | 320 | 737 | 269 | 241 | 4580 | 143 | 107 | 103 | 78.2 | 98.2 | 117
DNKPATGGTPSQSGA | 400 | 1040 | 1580 | 225 | 442 | 315 | 262 | 514 | 704 | 258 | 310 | 156
DNKAATGETPSPPGA | 2220 | 4720 | 21200 | 193 | 168 | 11700 | 147 | 221 | 190 | 139 | 166 | 673
KTATGGAPSPSGASS | 671 | 260 | 405 | 497 | 2120 | 328 | 414 | 156 | 148 | 110 | 132 | 228
SSTPPSGKENKTAAG | 37300 | 12800 | 10900 | 502 | 7750 | 2720 | 1970 | 1100 | 175 | 541 | 311 | 396
TDKKTATGGAPSPPG | 1180 | 302 | 880 | 4120 | 564 | 1130 | 318 | 198 | 137 | 113 | 196 | 180
ENKTAAGGTPSPSGA | 1530 | 2110 | 383 | 6360 | 419 | 1850 | 266 | 202 | 1790 | 396 | 1600 | 195
ISTPPSGTENKTATG | 48200 | 51400 | 51000 | 452 | 4430 | 30500 | 4470 | 652 | 630 | 1150 | 876 | 704
TEKKPATGGTPSQPG | 1860 | 632 | 2520 | 3380 | 821 | 1460 | 406 | 502 | 1060 | 303 | 635 | 848
TDNKPATGGAPSQSG | 1790 | 18900 | 10100 | 325 | 440 | 2650 | 251 | 1060 | 433 | 210 | 403 | 173
KDNKPATGETPSPPG | 39200 | 26100 | 37000 | 277 | 210 | 28400 | 315 | 556 | 266 | 268 | 1620 | 1700
KPAAGETPSQSGASS | 237 | 2760 | 11700 | 116 | 187 | 513 | 166 | 296 | 147 | 166 | 421 | 153
SGKEKKTAAGETPSQ | 5080 | 1470 | 3730 | 2570 | 5790 | 5640 | 240 | 168 | 91.4 | 257 | 185 | 137
STPPSGKDKKPATGG | 21700 | 3200 | 14400 | 607 | 41700 | 4120 | 583 | 465 | 168 | 190 | 142 | 302
GTENKPATGGAPSPP | 44600 | 19300 | 7800 | 618 | 2090 | 3850 | 494 | 2050 | 737 | 273 | 244 | 200
